Results from the supplement of paper PMC5998384.

Experiments:
[1] = tested on: HeLa Kyoto; experiment: solubility in G1/S (NP-40 vs SDS abundance) (log2 ratio); higher = more soluble; details: cell cycle stage: G1/S
[2] = tested on: HeLa Kyoto; experiment: melting temperature (median over replicates), in situ; higher = more thermally stable
[3] = tested on: HeLa Kyoto; experiment: thermal stability score vs G1/S (z-score of summed log2 fold changes over temperatures); higher = more thermally stable than in G1/S
[4] = tested on: HeLa Kyoto; experiment: solubility change mitosis vs G1/S (difference of NP-40 vs SDS log2 ratios) (log2 ratio difference); higher = more soluble in mitosis
[5] = cell cycle stage: early G1 (4.5 h after nocodazole release)
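Throughout, for melting temperature (median over replicates), in situ: HeLa Kyoto cells synchronized by double thymidine or nocodazole block, proteins quantified by TMT10plex mass spectrometry, three independent biological replicates.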
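Throughout, for solubility change mitosis vs G1/S (difference of NP-40 vs SDS log2 ratios): synchronized HeLa Kyoto cells (double thymidine block for G1/S, nocodazole release for mitosis), protein amounts in NP-40 versus SDS lysates quantified by mass spectrometry, three biological replicates.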
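Throughout, for solubility in G1/S (NP-40 vs SDS abundance): HeLa Kyoto cells arrested at G1/S by double thymidine block, proteins quantified by TMT10plex mass spectrometry in mild NP-40 versus SDS extracts, three biological replicates.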
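Throughout, for thermal stability score vs G1/S (z-score of summed log2 fold changes over temperatures): synchronized HeLa Kyoto cells, proteins quantified by TMT10plex mass spectrometry, three biological replicates, mitosis taken 0.5 h after nocodazole release, G1/S directly after double thymidine block.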

Row | Substance | solubility in G1/S (log2) [1] | melting temperature ([2]; cell cycle stage: G1/S) | melting temperature ([2]; cell cycle stage: mitosis) | thermal stability score [3, 5] | thermal stability score ([3]; cell cycle stage: mitosis) | solubility change mitosis (log2) [4]
1 | RAD18 (sequence left out) | -0.132 | 46.6 °C | 49.8 °C | 1.96 | 4.07 | 0.148
2 | APLP2 (sequence left out) | -0.151 | 55 °C | 54.8 °C | 3.53 | 2.78 | 0.0155
